The other results are listed elsewhere or left out.
Key:
Test in all cases: glycan array binding signal (z-score within array); higher = stronger binding
Conditions in all cases: glycan notation: IUPAC condensed, linker removed
[1] = molecular target: Gal(b1-4)GlcNAc(b1-2)Man(a1-6)[Man(a1-3)]Man(b1-4)GlcNAc(b1-4)GlcNAc
Method in brief: (§1)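 The Consortium for Functional Glycomics database supplied 3228 glycan arrays, of which those lacking an available protein sequence were dropped. The binding signal, a within-array Z-score, was averaged across arrays of the same protein sequence and across linkers. Negative scores can be read as non-binding.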

[2] = molecular target: Gal(b1-4)GlcNAc(b1-2)[Gal(b1-4)GlcNAc(b1-4)]Man(a1-3)[Gal(b1-4)GlcNAc(b1-2)Man(a1-6)]Man(b1-4)GlcNAc(b1-4)GlcNAc
Method in brief: as §1

[3] = molecular target: Gal(b1-4)GlcNAc(b1-2)[Gal(b1-4)GlcNAc(b1-4)]Man(a1-3)[Gal(b1-4)GlcNAc(b1-2)[Gal(b1-4)GlcNAc(b1-6)]Man(a1-6)]Man(b1-4)GlcNAc(b1-4)GlcNAc
Method in brief: as §1

[4] = molecular target: Gal(b1-4)GlcNAc(b1-2)[Gal(b1-4)GlcNAc(b1-4)]Man(a1-3)[GlcNAc(b1-4)][Gal(b1-4)GlcNAc(b1-2)Man(a1-6)]Man(b1-4)GlcNAc(b1-4)GlcNAc
Method in brief: as §1

[5] = molecular target: Gal(b1-4)GlcNAc(b1-2)[Gal(b1-4)GlcNAc(b1-4)]Man(a1-3)[GlcNAc(b1-4)][Gal(b1-4)GlcNAc(b1-2)[Gal(b1-4)GlcNAc(b1-6)]Man(a1-6)]Man(b1-4)GlcNAc(b1-4)GlcNAc
Method in brief: as §1

[6] = molecular target: Gal(b1-4)GlcNAc(b1-2)[Gal(b1-4)GlcNAc(b1-6)]Man(a1-6)[Gal(b1-4)GlcNAc(b1-2)Man(a1-3)]Man(b1-4)GlcNAc(b1-4)GlcNAc
Method in brief: as §1

[7] = molecular target: Gal(b1-4)GlcNAc(b1-2)[Gal(b1-4)GlcNAc(b1-6)]Man(a1-6)[Gal(b1-4)GlcNAc(b1-2)Man(a1-3)]Man(b1-4)GlcNAc(b1-4)[Fuc(a1-6)]GlcNAc
Method in brief: as §1

[8] = molecular target: Gal(b1-4)GlcNAc(b1-2)[Gal(b1-4)GlcNAc(b1-6)]Man(a1-6)[GlcNAc(b1-4)][Gal(b1-4)GlcNAc(b1-2)Man(a1-3)]Man(b1-4)GlcNAc(b1-4)GlcNAc
Method in brief: as §1

[9] = molecular target: Gal(b1-4)GlcNAc(b1-2)[Gal(b1-4)GlcNAc(b1-6)]Man(a1-6)[GlcNAc(b1-4)][Gal(b1-4)GlcNAc(b1-2)[Gal(b1-4)GlcNAc(b1-4)]Man(a1-3)]Man(b1-4)GlcNAc(b1-4)[Fuc(a1-6)]GlcNAc
Method in brief: as §1

[10] = molecular target: Gal(b1-4)GlcNAc(b1-3)Gal(b1-3)GalNAc
Method in brief: as §1

[11] = molecular target: Gal(b1-4)GlcNAc(b1-3)Gal(b1-3)GlcNAc
Method in brief: as §1

[12] = molecular target: Gal(b1-4)GlcNAc(b1-3)Gal(b1-4)Glc
Method in brief: as §1

[13] = molecular target: Gal(b1-4)GlcNAc(b1-3)Gal(b1-4)GlcNAc
Method in brief: as §1

[14] = molecular target: Gal(b1-4)GlcNAc(b1-3)Gal(b1-4)GlcNAc(b1-2)Man(a1-3)[Gal(b1-4)GlcNAc(b1-3)Gal(b1-4)GlcNAc(b1-2)Man(a1-6)]Man(b1-4)GlcNAc(b1-4)GlcNAc
Method in brief: as §1

[15] = molecular target: Gal(b1-4)GlcNAc(b1-3)Gal(b1-4)GlcNAc(b1-2)Man(a1-3)[Gal(b1-4)GlcNAc(b1-3)Gal(b1-4)GlcNAc(b1-2)Man(a1-6)]Man(b1-4)GlcNAc(b1-4)[Fuc(a1-6)]GlcNAc
Method in brief: as §1

[16] = molecular target: Gal(b1-4)GlcNAc(b1-3)Gal(b1-4)GlcNAc(b1-2)[Gal(b1-4)GlcNAc(b1-3)Gal(b1-4)GlcNAc(b1-6)]Man(a1-6)[Gal(b1-4)GlcNAc(b1-3)Gal(b1-4)GlcNAc(b1-2)Man(a1-3)]Man(b1-4)GlcNAc(b1-4)GlcNAc
Method in brief: as §1

[17] = molecular target: Gal(b1-4)GlcNAc(b1-3)Gal(b1-4)GlcNAc(b1-2)[Gal(b1-4)GlcNAc(b1-3)Gal(b1-4)GlcNAc(b1-6)]Man(a1-6)[Gal(b1-4)GlcNAc(b1-3)Gal(b1-4)GlcNAc(b1-2)Man(a1-3)]Man(b1-4)GlcNAc(b1-4)[Fuc(a1-6)]GlcNAc
Method in brief: as §1

[18] = molecular target: Gal(b1-4)GlcNAc(b1-3)Gal(b1-4)GlcNAc(b1-3)Gal(b1-4)GlcNAc
Method in brief: as §1

B1: Clec49 (Caenorhabditis elegans) (protein)
chain: MTRLTLLLFGLLGAATAQTCNTGGIYNEQFNRCYQYFTAPAQFSFAEQQCNLLGGHLASVQNGQENALLQSNAANSFKRSNYSDYWIGATDLETSGTWKWTDPSVTFDYSNWQLGEPQSGSDCAIQDKGDGTWSAIGCTSYRPYVCVTPVIMTATCPPITTPIPTTCPTPAPCPIKQCVPSCDQGWTYFSPTDFCYRVYHGEKFNDAEASCVLLGGHLASIHSLTENTFVNNIASCGIKEGKYEHLAWIGMRKVGQDWVWTDGTPSDYFNWAPKQPDNPKKELCVQTAPDLSHDKWYENWNNLECNEVMRAYICKKASIHN
[1]
  glycan array binding signal (z-score): -0.099
[2]
  glycan array binding signal (z-score): -0.275
[3]
  glycan array binding signal (z-score): -0.874
[4]
  glycan array binding signal (z-score): -0.004
[5]
  glycan array binding signal (z-score): -0.205
[6]
  glycan array binding signal (z-score): -0.312
[7]
  glycan array binding signal (z-score): 0.551
[8]
  glycan array binding signal (z-score): 0.081
[9]
  glycan array binding signal (z-score): -0.016
[10]
  glycan array binding signal (z-score): 0.024
[11]
  glycan array binding signal (z-score): -0.158
[12]
  glycan array binding signal (z-score): 0.145
[13]
  glycan array binding signal (z-score): -0.1
[14]
  glycan array binding signal (z-score): 2.54
[15]
  glycan array binding signal (z-score): 0.726
[16]
  glycan array binding signal (z-score): 0.013
[17]
  glycan array binding signal (z-score): -0.364
[18]
  glycan array binding signal (z-score): 0.409

Reference: the supplement of paper PMC8728848
